We go through 44 molecules from publication PMC4336329 (PLoS ONE, 2015).

Structures are written as SMILES. Screen size: about 310,000 compounds; about 14,000 (4.5%) showed an effect of 50% or more. The effect is printed as a negative number. The list shows a part of the results.
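Also: peak tail current of the secondary pulse compared with the same well before compound.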

Chain of human ether-à-go-go-related gene (hERG) potassium channel (Q12809 whole entry, looked up): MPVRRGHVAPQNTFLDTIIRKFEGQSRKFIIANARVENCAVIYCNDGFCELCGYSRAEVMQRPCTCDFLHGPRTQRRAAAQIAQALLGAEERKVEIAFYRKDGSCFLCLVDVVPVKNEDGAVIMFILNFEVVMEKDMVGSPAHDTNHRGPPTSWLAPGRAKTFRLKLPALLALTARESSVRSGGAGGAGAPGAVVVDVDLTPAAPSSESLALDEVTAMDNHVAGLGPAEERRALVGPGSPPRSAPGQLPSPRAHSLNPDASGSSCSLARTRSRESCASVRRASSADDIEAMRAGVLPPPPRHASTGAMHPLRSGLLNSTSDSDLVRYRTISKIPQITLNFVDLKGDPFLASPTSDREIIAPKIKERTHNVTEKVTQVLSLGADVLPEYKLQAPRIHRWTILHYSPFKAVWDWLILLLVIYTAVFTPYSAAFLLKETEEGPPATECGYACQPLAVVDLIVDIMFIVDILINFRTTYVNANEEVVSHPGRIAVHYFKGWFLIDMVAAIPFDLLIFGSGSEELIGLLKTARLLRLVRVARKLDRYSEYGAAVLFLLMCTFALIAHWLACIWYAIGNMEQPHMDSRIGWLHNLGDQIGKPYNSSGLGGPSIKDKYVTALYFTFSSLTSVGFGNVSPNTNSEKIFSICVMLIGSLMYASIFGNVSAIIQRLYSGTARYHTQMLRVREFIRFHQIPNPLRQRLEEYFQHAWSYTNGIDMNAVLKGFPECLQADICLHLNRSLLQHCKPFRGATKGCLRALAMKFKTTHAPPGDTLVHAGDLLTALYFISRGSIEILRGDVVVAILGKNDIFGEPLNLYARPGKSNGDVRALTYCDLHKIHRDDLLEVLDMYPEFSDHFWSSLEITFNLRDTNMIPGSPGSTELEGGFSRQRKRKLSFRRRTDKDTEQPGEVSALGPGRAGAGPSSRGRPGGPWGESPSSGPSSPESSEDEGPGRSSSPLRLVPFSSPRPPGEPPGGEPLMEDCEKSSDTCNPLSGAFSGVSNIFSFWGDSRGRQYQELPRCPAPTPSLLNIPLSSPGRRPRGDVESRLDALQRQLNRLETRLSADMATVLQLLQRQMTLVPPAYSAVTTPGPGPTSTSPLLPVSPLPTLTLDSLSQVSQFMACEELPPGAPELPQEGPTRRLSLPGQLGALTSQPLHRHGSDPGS

This experiment addresses human ether-à-go-go-related gene (hERG) potassium channel (human, UniProt Q12809). Briefly: primary screen, population patch clamp on CHO cells stably expressing hERG.
As to `Cc1ccc(-c2csc(NC(=O)CCNC(=O)c3ccccc3Cl)n2)cc1`, the “hERG current change (%, negative = inhibition) at 10uM” value was 1.5%.

As to `CC(Nc1nc(N2CCN(S(C)(=O)=O)CC2)nc2ccccc12)c1ccccc1` (centres unmarked), the “hERG current change (%, negative = inhibition) at 10uM” value was -60.9%.

Take `COCCn1nnnc1CN1CCC(O)(c2cccc(C(F)(F)F)c2)CC1.Cl`: the “hERG current change (%, negative = inhibition) at 10uM” value stood at 2.65%.

Take `CC1CCN(C(C)C(=O)Nc2ccc(S(=O)(=O)N3CCCC3)cc2)CC1` (centres unmarked): the “hERG current change (%, negative = inhibition) at 10uM” value is -6.3%.

`CCOC(=O)N1CCC(NC(=O)CSCc2nc(-c3ccc(OC)cc3)oc2C)CC1`: the “hERG current change (%, negative = inhibition) at 10uM” value is listed as -6.28%.

Take `Cc1cc(C)nc(NC(=O)c2cc(Br)ccc2Cl)n1`: the “hERG current change (%, negative = inhibition) at 10uM” value was -3.72%.

With `COc1ccccc1S(=O)(=O)Cc1ccc(C(=O)NC2CCCCCC2)o1`, the “hERG current change (%, negative = inhibition) at 10uM” value was -13.2%.

For the molecule `CC(CCc1ccccc1)NC(=O)CCCn1ncn2c(cc3occc32)c1=O` (centres unmarked), the “hERG current change (%, negative = inhibition) at 10uM” value was -31.2%.

As to `O=C(CCOc1ccccc1)Nc1ccccc1F`, the “hERG current change (%, negative = inhibition) at 10uM” value stood at 20.4%.

`CC1CC(C)CN(CCCNC(=O)c2ccc(CNS(=O)(=O)c3ccc(F)cc3)cc2)C1` (centres unmarked): the “hERG current change (%, negative = inhibition) at 10uM” value is listed as -32.3%.

Take `N#CC(C#N)=C1NC2(CCCC2)Cc2ccccc21`: the “hERG current change (%, negative = inhibition) at 10uM” value turned out to be 6.42%.

For the molecule `CCc1n[nH]c2c1C(=O)CC(C)(C)C2`, the “hERG current change (%, negative = inhibition) at 10uM” value stood at 17.4%.

As for `O=C(COc1ccc(F)cc1Cl)Nc1ccc(N2CCOCC2)cc1N1CCOCC1`, the “hERG current change (%, negative = inhibition) at 10uM” value is given as -10.2%.

Take `O=C(COC(=O)CNC(=O)c1cccc([N+](=O)[O-])c1)Nc1ccccc1OC(F)F`: the “hERG current change (%, negative = inhibition) at 10uM” value is -29.3%.

As to `COc1ccc(OCCCC(=O)NCc2ccco2)cc1`, the “hERG current change (%, negative = inhibition) at 10uM” value is on record as -7.09%.

As for `O=C(N[C@H]1CCCCNC1=O)c1cc(COc2ccc(F)cc2F)on1`, the “hERG current change (%, negative = inhibition) at 10uM” value is listed as 10.2%.

For `Cc1nc(SCC(=O)Nc2cc(C)on2)c2c3c(sc2n1)CCCC3`, the “hERG current change (%, negative = inhibition) at 10uM” value came to 0.497%.

For `COc1ccccc1N1CCN(CC(=O)NCc2ccc(Cl)cc2)CC1`, the “hERG current change (%, negative = inhibition) at 10uM” value is -0.607%.

On to `O=C(O)/C(=C\c1cccc(F)c1)c1ccc(S(=O)(=O)N2CCCC2)s1`, for which the “hERG current change (%, negative = inhibition) at 10uM” value was determined as 3.55%.

For `O=C(NCCc1ccccc1)c1cnc2n(c1=O)CCS2`, the “hERG current change (%, negative = inhibition) at 10uM” value is recorded as 15.7%.

Take `CCN(Cc1cc2ccccc2[nH]c1=O)S(=O)(=O)c1ccc(OC)cc1`: the “hERG current change (%, negative = inhibition) at 10uM” value is -0.598%.

As for `O=C1CCCC(O)=C1C=NCc1ccccc1`, the “hERG current change (%, negative = inhibition) at 10uM” value was 23.6%.

With `O=C(COC(=O)c1ccc2c(c1)OCCO2)NC1CCCCC1`, the “hERG current change (%, negative = inhibition) at 10uM” value is 2.37%.

Consider `CC(=O)Nc1ccc(Nc2nc(C)c([N+](=O)[O-])c(Nc3ccccc3)n2)cc1`, for which the “hERG current change (%, negative = inhibition) at 10uM” value is -0.794%.

As for `CSCC[C@@H](C(=O)NCc1cccs1)N1Cc2ccccc2C1=O`, the “hERG current change (%, negative = inhibition) at 10uM” value is 1.01%.

`CC1(C)C(c2cccs2)=[N+]([O-])C2(CCCCC/C2=N\O)N1O` (centres unmarked): the “hERG current change (%, negative = inhibition) at 10uM” value stood at 18.5%.

As to `O=C(CCc1nnc(COc2ccccc2)o1)NCc1ccccc1`, the “hERG current change (%, negative = inhibition) at 10uM” value was determined as 9.88%.

As to `CCn1c(NCc2ccc(N(C)C)cc2)nc2ccccc21`, the “hERG current change (%, negative = inhibition) at 10uM” value is -41.2%.

Turning to `O=C(NCc1ccncc1)/C(=C/c1cccc([N+](=O)[O-])c1)NC(=O)c1ccccc1`, the “hERG current change (%, negative = inhibition) at 10uM” value is given as -71%.

On to `Cc1cccc(/C=N/NC(=O)c2cc(Br)ccc2OCc2ccccc2)n1`, for which the “hERG current change (%, negative = inhibition) at 10uM” value was -0.685%.

Consider `Cc1nc(CSc2nnc(Nc3cccc(C)c3C)s2)cs1`, for which the “hERG current change (%, negative = inhibition) at 10uM” value is given as -5.24%.

For `COc1ccccc1NS(=O)(=O)c1cc(C(=O)NCCC(C)C)ccc1F`, the “hERG current change (%, negative = inhibition) at 10uM” value was -15.6%.

As to `CNC(=O)CN1C(=O)C2C3C=CC(C3)C2C1=O` (centres unmarked), the “hERG current change (%, negative = inhibition) at 10uM” value is reported as -7.5%.

Consider `COC(=O)C(O)(c1ccc(N(C)C)cc1)C(F)(F)F` (centres unmarked), for which the “hERG current change (%, negative = inhibition) at 10uM” value worked out at 15.5%.

For `NNC(=S)Nc1ccc(OC(F)(F)F)cc1`, the “hERG current change (%, negative = inhibition) at 10uM” value worked out at 14.8%.

Turning to `Cc1ccc2nc3c(cc(C(=O)NCCc4ccccc4)c(=N)n3CC3CCCO3)c(=O)n2c1` (centres unmarked), the “hERG current change (%, negative = inhibition) at 10uM” value was -76.9%.

In the case of `Cc1ccccc1C1CCCN(C(=O)c2cc(COc3c(F)cccc3F)on2)C1` (centres unmarked), the “hERG current change (%, negative = inhibition) at 10uM” value was 16.4%.

With `C/C=C/C(=O)N1CC2(CC(c3cccc(NC(=O)CC(c4ccccc4)c4ccccc4)c3)=NO2)C[C@H]1C(N)=O` (some centres unmarked), the “hERG current change (%, negative = inhibition) at 10uM” value is listed as 11.3%.

`CC(C)CCNC(=O)CN(Cc1ccc2c(c1)OCO2)C(=O)Cn1nnc(-c2cccs2)n1`: the “hERG current change (%, negative = inhibition) at 10uM” value is -29.4%.

In the case of `O=C(Nc1ccc(F)c(Cl)c1)c1cccnc1`, the “hERG current change (%, negative = inhibition) at 10uM” value was -65.9%.

As to `Cn1c(=O)c2c(=O)cc(NNC(=O)C(C)(C)C)[nH]c2n(C)c1=O`, the “hERG current change (%, negative = inhibition) at 10uM” value turned out to be 0.349%.

In the case of `Cc1ccc(S(=O)(=O)Nc2c(C)nn(C)c2C)cc1`, the “hERG current change (%, negative = inhibition) at 10uM” value is -4.07%.

With `CCN1CCCC1CNS(=O)(=O)c1ccc(Br)cc1.Cl` (centres unmarked), the “hERG current change (%, negative = inhibition) at 10uM” value was -36.3%.

Regarding `Cc1cc2nc(C3CCN(Cc4nnnn4Cc4ccccc4)CC3)[nH]c2cc1C`, the “hERG current change (%, negative = inhibition) at 10uM” value is reported as -52.3%.
